This passage reports binding signal results from paper PMC7819943, “Rice protein-binding microarrays: a tool to detect cis-acting elements near promoter regions in rice”.

Some of the results follow.

This assay has as its target T1, OsWOX13 (Oryza sativa, UniProt Q5QMM3 1-267).
T1 sequence: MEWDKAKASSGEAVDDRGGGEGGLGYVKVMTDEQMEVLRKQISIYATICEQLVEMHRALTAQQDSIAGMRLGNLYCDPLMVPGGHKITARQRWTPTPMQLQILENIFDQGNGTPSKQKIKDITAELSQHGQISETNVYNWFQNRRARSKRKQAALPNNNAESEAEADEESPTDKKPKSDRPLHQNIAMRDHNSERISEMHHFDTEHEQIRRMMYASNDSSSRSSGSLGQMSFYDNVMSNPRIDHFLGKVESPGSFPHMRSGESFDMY
The assay can be described thus: protein-binding microarray (RPBM); PBS, 2% BSA, 51.3 ng/ul salmon testes DNA, 50 uM zinc acetate, 200 nM TF, 25 C, 1 h; high values mean tight binding. The following applies: protein: recombinant; tags: N-terminal polyhistidine and DsRed monomer fusion (pET32a); label: CyDye5-dUTP incorporated in the synthesized complementary strand; 3' TTTTT single-stranded linker to array surface; dsDNA, one strand shown. The method in brief:
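A custom Agilent array was converted to double-stranded form by primer extension with Cy5-dUTP and blocked with 2% BSA. Protein at 200 nM in PBS with 2% BSA, salmon testes DNA and 50 µM zinc acetate was applied for 1 h at 25 °C, followed by washing. The proteins were polyhistidine–DsRed N-terminal fusions of transcription factors, expressed in E. coli BL21-CodonPlus and Ni–NTA-purified. The binding signal is per-feature fluorescence intensity (arbitrary units) from an Axon 4000B scanner.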
Turning to “AGAGTTGATTTCTACAGAACATATTTGAATTTATCTGATGCGGAGTCACCTAGTGCAG”, the binding signal was 7650 fluorescence intensity (a.u.). For “AGTGATTAATTACACTGAGCTGGAAGCTAGCCTTGACCTGCGGAGTCACCTAGTGCAG”, the binding signal was 39000 fluorescence intensity (a.u.). Consider “AGATAATTATATCTATAGACTCGATGAATTGGGAGTGTCCCGGAGTCACCTAGTGCAG”, for which the binding signal was 39200 fluorescence intensity (a.u.). The same measure for “TGAAAATTGGCTTTTCTCTTATATGCCATTGGTCCAAATTCGGAGTCACCTAGTGCAG”: 5220 fluorescence intensity (a.u.); for “TCGCCCCAATCACGCGCGTTAACTCCCGCGCCGCGCCGCCCGGAGTCACCTAGTGCAG”: 31600 fluorescence intensity (a.u.); for “TCTGAACATTTTAATCACGTCAATCCGTCTTACGTGACAACGGAGTCACCTAGTGCAG”: 9460 fluorescence intensity (a.u.).

“CTAATTTAATGGATGCAGTATAGCTTGATAAATAAACCATCGGAGTCACCTAGTGCAG”: the binding signal is 15500 fluorescence intensity (a.u.).

For the sequence “CCCATAACTAAAATCACGAATTTGCGATGTCTTGTAGTAACGGAGTCACCTAGTGCAG”, the binding signal was 8270 fluorescence intensity (a.u.). With “TCAGCTTATCAACCGATCATAATTAGCCAAGTCGAAACACCGGAGTCACCTAGTGCAG”, the binding signal was 3500 fluorescence intensity (a.u.). As for “ACTAGTCACACAAATTACCGTGCTTCATCAACGACACTTTCGGAGTCACCTAGTGCAG”, the binding signal was 3450 fluorescence intensity (a.u.). The same measure for “CAAGAAAATGATTGGCTGATTTTCTTACAAATATCTAGGACGGAGTCACCTAGTGCAG”: 47100 fluorescence intensity (a.u.).

With “AACTGATTGTACCTAACAACCATCAGTACCAACAATAGTGCGGAGTCACCTAGTGCAG”, the binding signal was 31600 fluorescence intensity (a.u.). With “CTTAACTAGTCAACCCATAAACACGATTACAATACTCCACCGGAGTCACCTAGTGCAG”, the binding signal was 4170 fluorescence intensity (a.u.). On to “GGATAATCTGATTACCGAGTGATAATCCACGGTATATACACGGAGTCACCTAGTGCAG”, for which the binding signal is 11500 fluorescence intensity (a.u.). Turning to “TCTTAATTCGCATCATTTCGGCATTTCCATTGCTAGGGTTCGGAGTCACCTAGTGCAG”, the binding signal is 3630 fluorescence intensity (a.u.).

For “TGTTCCAATAACTTGATATGATGGATGGGAGGTCAATCTTCGGAGTCACCTAGTGCAG”, the binding signal is 3520 fluorescence intensity (a.u.).

Take “CAATTGTGAAATAATTAATTAAATTATCATTAAGCCCCAACGGAGTCACCTAGTGCAG”: the binding signal is 30300 fluorescence intensity (a.u.).

Regarding “GGCGAAACAATCTAGAATAAATTGAAAAGTTTGGTTCAAACGGAGTCACCTAGTGCAG”, the binding signal was 10300 fluorescence intensity (a.u.).

For the sequence “TATCTATCATTCTATCATTCTATCTATCTATATCTCTCGCCGGAGTCACCTAGTGCAG”, the binding signal is 3970 fluorescence intensity (a.u.). Regarding “ATTTAATCACCGACCTTACACCAGCAGCAGTCCACCACCCCGGAGTCACCTAGTGCAG”, the binding signal was 4540 fluorescence intensity (a.u.). On to “AATAATGATTGCCGCGTAGTAGGAAACAAGATCTATTATGCGGAGTCACCTAGTGCAG”, for which the binding signal is 39900 fluorescence intensity (a.u.).

On to “GTAATTGGGCTTTCTTTGGGTAGTTATCGCTGGGCTTAATCGGAGTCACCTAGTGCAG”, for which the binding signal is 6360 fluorescence intensity (a.u.). With “CACATCATTATAAGTTAAAATTTAACTCGTAGATTCACTCCGGAGTCACCTAGTGCAG” the figure was 3380 fluorescence intensity (a.u.); with “AAAGGATAATAATTATTTGAGAATATATAGATATATAGAACGGAGTCACCTAGTGCAG”, 3180 fluorescence intensity (a.u.); with “GGGGTAGATTTGCATTTGCATCAGCACGATCACAAAGCTTCGGAGTCACCTAGTGCAG”, 5440 fluorescence intensity (a.u.). With “GTCCGAATCTTAATCACACACATGTAATGTTAACCTCATTCGGAGTCACCTAGTGCAG”, the binding signal is 3360 fluorescence intensity (a.u.). Consider “TCAGATTGTTTGCTCCCACTGCAAGAGGTCTGGTCACCGTCGGAGTCACCTAGTGCAG”, for which the binding signal was 3710 fluorescence intensity (a.u.). As for “GGAAGGGGATTGAAGGCTCATCAATGTGGTTGGGTGTGGTCGGAGTCACCTAGTGCAG”, the binding signal was 11800 fluorescence intensity (a.u.). In the case of “TAGTCTGATAATGACAATGATGATTAGATAATGAGCAAAGCGGAGTCACCTAGTGCAG”, the binding signal was 10300 fluorescence intensity (a.u.).

Regarding “CATTATGATGACTTGATGAAGAGCCGGACCCATTGAACAGCGGAGTCACCTAGTGCAG”, the binding signal was 3200 fluorescence intensity (a.u.). For “GCCATGTCACCTCTTTCTAATTACACATTTACAACAGAAACGGAGTCACCTAGTGCAG”, the binding signal was 5740 fluorescence intensity (a.u.). In the case of “CCTGATCAAAATTGAGAGGGCCAAGATTTGAGGCAAAACTCGGAGTCACCTAGTGCAG”, the binding signal is 10900 fluorescence intensity (a.u.). Consider “GGGAGATTTGTTGCAACGGAGGGCATTGAGTGGTGGGGACCGGAGTCACCTAGTGCAG”, for which the binding signal is 3340 fluorescence intensity (a.u.). Consider “CAACTGGGTTAATCTCAATCAAAATATATACTCCCTCTAACGGAGTCACCTAGTGCAG”, for which the binding signal was 11300 fluorescence intensity (a.u.). The same measure for “TCATTAATTGTTTCTGTTACATACTGGAGTAGTAAGGATACGGAGTCACCTAGTGCAG”: 22100 fluorescence intensity (a.u.); for “TATTTTCAATTATAGGTCTAATTGTTTTATTTAGGTGATTCGGAGTCACCTAGTGCAG”: 20500 fluorescence intensity (a.u.). Take “AATAATTGAGGGCAGGGAGGTGATGAAGCAACCTCCACTCCGGAGTCACCTAGTGCAG”: the binding signal was 19300 fluorescence intensity (a.u.).

In the case of “AGCGATTCAATTGGTTAATTGTGTTGAAGTCTATTGTTGCCGGAGTCACCTAGTGCAG”, the binding signal is 4750 fluorescence intensity (a.u.).

Turning to “ATCTAATCATAGGTGAGCTAACCGAGGAAGAACAATGCAACGGAGTCACCTAGTGCAG”, the binding signal is 5440 fluorescence intensity (a.u.). Turning to “AAAGGCAATTACGAGGCACTAACAACTTTCCTAGCACGGCCGGAGTCACCTAGTGCAG”, the binding signal is 5250 fluorescence intensity (a.u.).

Regarding “GTAGATATCGAGCTAATTAGCAATAAGGTCAAACAGCAACCGGAGTCACCTAGTGCAG”, the binding signal was 13300 fluorescence intensity (a.u.). With “ATGATTGACAAGATGAATCAGCACGCTGTTGGAAAAGGGACGGAGTCACCTAGTGCAG” the figure was 55400 fluorescence intensity (a.u.).
